Data from PubChem BioAssay AID894 (National Center for Advancing Translational Sciences (NCATS), 2007).
Hit rate of the full screen: of about 150,000 compounds, about 6,500 (4.3%) were called active. Inconclusive results, whose numbers are uncertain, are shown with a selection of clear calls. Calls come from the whole dose curve; as a rule, active = well fitted inhibition curve with a large enough effect (not every such curve was filed as active); inconclusive = small, poorly fitted or top-dose-only effect, or another doubt; inactive = no such curve, though single readings can be large or run the other way. No potency is given beside an inconclusive call; the fits are too rough.

The compounds below were run against 15-hydroxyprostaglandin dehydrogenase [NAD(+)] (Homo sapiens) (UniProt P15428) (assay: qHTS Assay for Inhibitors of HPGD (15-Hydroxyprostaglandin Dehydrogenase)). Details: purified HPGD, NADH fluorescence kinetic, PGE2 substrate; activity change, negative = inhibition: stronger effect = lower value.
In short: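 NADH formation kinetics: reaction with 30 uM PGE2 and 1 mM NAD+ (final), 20 nM enzyme, Tris-HCl pH 8 with Tween 20, after 15 min compound preincubation at room temperature. Fluorescence change, last versus first of five reads.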
% is set by controls: 0 for no effect and ±100 for the full control effect; potency is the fitted concentration of half-maximal effect; tags give direction and shape of the fitted curve.

Chain of UniProt P15428 (P15428 whole entry, looked up): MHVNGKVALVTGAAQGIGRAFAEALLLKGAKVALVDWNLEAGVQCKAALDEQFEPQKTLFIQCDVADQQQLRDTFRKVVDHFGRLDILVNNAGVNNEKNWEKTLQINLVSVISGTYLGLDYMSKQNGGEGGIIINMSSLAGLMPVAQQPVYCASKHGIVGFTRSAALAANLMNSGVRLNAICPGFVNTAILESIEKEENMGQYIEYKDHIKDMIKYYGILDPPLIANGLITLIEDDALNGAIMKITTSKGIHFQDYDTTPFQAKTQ

Row | Compound | Potency | activity change, negative = inhibition
1 | Cc1cccc(-c2cc3nc4c(c(N5CCOCC5)n3n2)CCCC4)c1 | inconclusive [inhibitor, partial curve] | –
2 | Cc1nn(CC#N)c(=O)n1-c1ccc(F)cc1 | – | inactive: -8.96%
3 | CS(=O)(=O)N1CCC[C@@]2(CCN(c3ccccc3)C2)C1 | – | inactive: -0.31%
4 | CCOC(=O)Cn1nc(-c2ccccc2)c2cnc3ccc(CC)cc3c21 | inconclusive [inhibitor, partial curve] | –
5 | CCSC1(SCC)N=C(N)C2(C#N)C(c3ccc(F)cc3)C12C#N (stereo not given) | inconclusive [inhibitor, single point] | –
6 | O=c1oc2c(CN3CCOCC3)c(O)ccc2c2c1CCCC2 | inconclusive [inhibitor, partial curve] | –
7 | Cc1cccc(C(=O)Nc2ccc(C(=O)/C=C/c3cccnc3)cc2)c1 | inconclusive [inhibitor, partial curve] | –
8 | Cc1cc([N+](=O)[O-])nn1CCCC(=O)Nc1sc2c(c1C(N)=O)CCCC2 | active: 4.47 µM | –
9 | O=C(c1sc2cc([N+](=O)[O-])ccc2c1Cl)N1CCOCC1 | active: 15.8 µM | –
10 | CN(Cc1nc(-c2cccnc2)no1)S(=O)(=O)c1ccc(Br)cc1 | inconclusive [inhibitor, partial curve] | –
11 | COc1ccccc1C(=O)NCC(=O)n1nc(C)cc1C | – | inactive: -17%
12 | Cc1noc(C)c1COC(=O)c1ccc(-c2nc3ccccc3s2)s1 | inconclusive [inhibitor, partial curve] | –
13 | COC(=O)[C@@]1(Cc2ccc(OC)cc2)[C@H]2c3cc(C(=O)N(C)C)n(Cc4ccc(OC)c(OC)c4)c3C[C@H]2CN1C(=O)c1ccccc1 | – | inactive: -8.19%
14 | CC1(C)SC(=S)N(NC(=O)Nc2ccccc2)C1N(O)C(=O)Nc1cccc2ccccc12 (stereo not given) | inconclusive [inhibitor, partial curve] | –
15 | Nc1nc(N2CCN(C(=O)c3ccco3)CC2)nc2ccccc12 | inconclusive [inhibitor, partial curve] | –
16 | CC1=C(C(=O)Nc2ccccc2C)C2(CCCCC2)C(C(N)=O)C(=S)N1 (stereo not given) | – | inactive: -16.9%
17 | C=CCN1C(=O)C(CC(=O)Nc2ccc(C)cc2)SC1=Nc1c(C)n(C)n(-c2ccccc2)c1=O (stereo not given) | – | inactive: -5.25%
18 | CCCC(=O)N(CCN(C(=O)CCC)c1ccccc1)c1ccccc1 | – | inactive: -4.35%
19 | COc1ccc(-n2nc(C(=O)NCC(=O)Nc3ccccn3)c3ccccc3c2=O)cc1Cl | inconclusive [inhibitor, partial curve] | –
20 | CCCCNc1nc(C)nc2c1nc(-c1ccccc1)n2C(C)CCCN(CC)CC (stereo not given) | inconclusive [inhibitor, partial curve] | –
21 | O=C(Nc1nnc(-c2ccccc2)o1)c1cc(-c2cccs2)nc2ccccc12 | inconclusive [inhibitor, partial curve] | –
22 | CCCCn1c(SCC(=O)NCC2CCCO2)nc2ccc(N3CCOCC3)cc2c1=O (stereo not given) | inconclusive [inhibitor, partial curve] | –
23 | O=C(Nc1ccc(-c2cn3ccsc3n2)cc1)C1CC1 | – | inactive: -8.41%
24 | C=CCn1c(CCNC(=O)c2cccs2)nnc1SCC(=O)c1ccc(Cl)cc1 | – | inactive: -20%

Row | Compound | Potency | activity change, negative = inhibition
25 | CCCN1Cc2cccc(C(=O)Nc3ccc(C)cc3)c2C1=O | – | inactive: -13%
26 | CCc1nc(SCC(=O)c2ccc3c(c2)OCCO3)c2ccccc2n1 | inconclusive [inhibitor, single point] | –
27 | O=c1c(-c2nc3ccccc3o2)c2oc3ccccc3n2c2ccccc12 | inconclusive [inhibitor, partial curve] | –
28 | COc1ccc2c(CC(=O)NCC3CCC(C(=O)O)CC3)cc(=O)oc2c1 (stereo not given) | inconclusive [inhibitor, partial curve] | –
29 | COc1ccc(CCNc2cc(C)nc3c(-c4ccccc4)cnn23)cc1OC | inconclusive [inhibitor, partial curve] | –
30 | Cc1cc2c(cc1Cl)N(C(=O)Nc1ccnc3ccccc13)CC2 | – | inactive: -9.01%
31 | COc1cc(OC)c2c(-c3ccccc3)cc(=O)oc2c1C(CCN1CCOCC1)c1ccc2c(c1)OCO2 (stereo not given) | inconclusive [inhibitor, single point] | –
32 | CCOC(=O)C(=O)Nc1nnc(Cc2ccc(OC)c(OC)c2)s1 | – | inactive: -17.1%
33 | O=C(O)c1ccccc1-c1ccccc1C(=O)Nc1ccc2c(c1)Cc1cc(F)ccc1-2 | – | inactive: -14.6%
34 | Cc1ccc(NC(=O)c2snc3c(=O)[nH]cnc23)cc1C | – | inactive: -7.56%
35 | O=C(c1oc(=O)c2ccccc2c1-c1ccccc1)N1CCOCC1 | – | inactive: -1.83%
36 | CCCCn1c(=O)[nH]c(=O)c2c1nc(-c1ccc(C#N)cc1)n2C1CCCC1 | inconclusive [inhibitor, partial curve] | –
37 | O=C(O)COc1ccc2c(-c3ccccc3)cc(=O)oc2c1 | active: 17.8 µM | –
38 | Clc1ccccc1-c1nnc2sc(C3COc4ccccc4O3)nn12 (stereo not given) | active: 20 µM | –
39 | O=C(Nc1ccc(-c2nnc3n2CCCCC3)cc1)c1cnccn1 | active: 10 µM | –
40 | Nc1nc2c(ncn2[C@@H]2C=C[C@@H](CO)C2)c(=O)[nH]1 | – | inactive: -15%
41 | CN(C)c1ccc(C(=S)N2CCOCC2)cc1 | – | inactive: -15.8%
42 | CN(C)c1ccc(/C=N/n2ncc3ccccc32)cc1 | inconclusive [inhibitor, partial curve] | –
43 | CCCC(=O)NCCc1c2n(c3ccc(OC)cc13)CCCc1ccccc1-2 | inconclusive [inhibitor, partial curve] | –
44 | O=C1CC2(CCCC2)CC(=O)N1CCCCN1CCN(c2ncccn2)CC1 | – | inactive: -2.01% [middle of 4 runs]
45 | Cc1ccc(C2NC(=O)c3c(sc4c3CCN(C)C4)N2)s1 (stereo not given) | inconclusive [inhibitor, partial curve] | –
46 | O=C(COc1nsnc1N1CCOCC1)N/N=C/c1ccccc1O | inconclusive [inhibitor, partial curve] | –
47 | Cc1ccsc1C1NC(=O)c2c(sc3c2CCCC3)N1 (stereo not given) | inconclusive [inhibitor, partial curve, poor fit] | –
48 | CCC(c1nnnn1CCOC)N(Cc1ccc(C)cc1)Cc1cc2cc(OC)ccc2[nH]c1=O (stereo not given) | inconclusive [inhibitor, partial curve] | –

Row | Compound | Potency | activity change, negative = inhibition
49 | O=C(Nc1ccc(-c2cn3ccccc3n2)cc1)c1ccco1 | – | inactive: -13.7%
50 | O=C(Nc1nc(-c2cccs2)cs1)c1cccc(S(=O)(=O)N2CCCCCC2)c1 | – | inactive: -20.3%
51 | Cc1cc(C)c(C)c(S(=O)(=O)Nc2ccccc2C(=O)NCCCn2ccnc2)c1C | inconclusive [inhibitor, single point] | –
52 | CC(C)c1ccc(/C=C/C(=O)N2CCCCCC2)cc1 | active: 14.1 µM | –
53 | CC1(C)Oc2ccc(C(=O)NC3CC3)cc2N(CC(=O)N2CCOCC2)C1=O | inconclusive [inhibitor, partial curve] | –
54 | CCC(C)NC(=O)c1cc2cc3ccc(OC)cc3nc2s1 (stereo not given) | inconclusive [inhibitor, partial curve] | –
55 | CN1CCC(=NNC(=O)CSCc2ccccc2)CC1 | – | inactive: -4.28%
56 | COc1ccccc1C(=O)NCC(=O)OC(C)C(=O)NC(=O)NC1CCCCC1 (stereo not given) | – | inactive: -6.29%
57 | N/C(=N\OC(=O)COc1ccc(Br)cc1Cl)c1ccncc1 | inconclusive [inhibitor, partial curve] | –
58 | Cc1ccc(-c2csc(N3CCC(NS(=O)(=O)c4ccc5c(c4)OCCO5)CC3)n2)cc1 | inconclusive [inhibitor, single point] | –
59 | CCC(C)c1ccc(Nc2ncccc2C#N)cc1 (stereo not given) | active: 17.8 µM | –
60 | Cc1ccc(-n2ncc3c(=O)n(CC(=O)OCc4ccccc4)cnc32)cc1 | – | inactive: -22.2%
61 | Cc1cccc(-n2c(C)cc(/C=N\NC(=O)c3cccs3)c2C)c1 | inconclusive [inhibitor, partial curve] | –
62 | CC1(C)Cc2c(C#N)c(NC3CCCCC3)nc(-c3ccco3)c2CO1 | inconclusive [inhibitor, partial curve] | –
63 | C[C@@H](O)CCC[C@H](O)/C=C/[C@@H]1[C@@H](C/C=C\CCCC(=O)O)[C@@H](O)C[C@H]1O | – | inactive: -2.74%
64 | O=C(COC(=O)c1c2c(nc3ccccc13)/C(=C\c1cccs1)CCC2)Nc1ccccc1 | inconclusive [inhibitor, partial curve] | –
65 | COc1cc(/C=C(/C#N)c2nc3ccccc3[nH]2)ccc1OCC(=O)Nc1ccccc1C(C)C | inconclusive [inhibitor, partial curve] | –
66 | C/C(=N\NC(=O)c1ccc(Cl)cc1)c1ccc(N2CCOCC2)cc1 | inconclusive [inhibitor, partial curve] | –
67 | Cn1cc(SCC(=O)Nc2nccs2)c2ccccc21 | inconclusive [inhibitor, partial curve, poor fit] | –
68 | CCOC(=O)CCCCCCCCCCCCC1C=CCC1 (stereo not given) | – | inactive: -20.8%
69 | OCCn1c(CSc2nnc(-c3ccco3)n2-c2ccccc2)nc2ccc(Cl)cc21 | inconclusive [inhibitor, single point] | –
70 | CCCCN(C(=O)NC(=O)C1=C(N2CCOCC2)/C(=C/c2ccccc2)CC1)S(C)(=O)=O | inconclusive [inhibitor, partial curve] | –
